One block for each binder: values may come before it.
Target: T1, CD47-muFc (human)
T1 construct: also called CD47-muFc fusion protein; Group 8
Assay: BLI (Octet K2), CD47-muFc immobilised on AHC biosensors, 25 C

Sequence of CD47-muFc (chain, as listed by the source limits assumed): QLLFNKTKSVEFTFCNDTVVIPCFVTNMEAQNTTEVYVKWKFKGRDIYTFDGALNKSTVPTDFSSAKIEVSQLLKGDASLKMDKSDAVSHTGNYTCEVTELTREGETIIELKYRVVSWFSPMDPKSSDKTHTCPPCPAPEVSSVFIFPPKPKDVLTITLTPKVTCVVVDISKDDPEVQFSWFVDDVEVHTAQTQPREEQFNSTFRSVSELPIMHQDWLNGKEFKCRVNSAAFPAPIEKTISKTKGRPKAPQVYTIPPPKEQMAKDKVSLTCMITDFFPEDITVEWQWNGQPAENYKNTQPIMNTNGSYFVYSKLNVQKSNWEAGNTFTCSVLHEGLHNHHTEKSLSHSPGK

Kd: 5.3 nM
koff: 0.00607 s⁻¹
kon: 1.14e+06 M⁻¹ s⁻¹
B1: hu56di-SIRPα (Fc fusion)
chain 1: QVQLVESGGGLVQPGGSLRLSCAASGKMSSRRCMAWFRQAPGKERERVAKLLTTSGSTYLADSVKGRFTISRDNSKNTVYLQMNSLRAEDTAVYYCAADSFEDPTCTLVTSSGAFQYWGQGTLVTVSSGAPQVQLVESGGGLVQPGGSLRLSCAASGKMSSRRCMAWFRQAPGKERERVAKLLTTSGSTYLADSVKGRFTISRDNSKNTVYLQMNSLRAEDTAVYYCAADSFEDPTCTLVTSSGAFQYWGQGTLVTVSSEPKSSDKTHTCPPCPAPELLGGPSVFLFPPKPKDTLMISRTPEVTCVVVDVSHEDPEVKFNWYVDGVEVHNAKTKPREEQYNSTYRVVSVLTVLHQDWLNGKEYKCKVSNKALPAPIEKTISKAKGQPREPQVYTLPPCRDELTKNQVSLWCLVKGFYPSDIAVEWESNGQPENNYKTTPPVLDSDGSFFLYSALTVDKSRWQQGNVFSCSVMHEALHNHYTQKSLSLSPGK
chain 2: [not shown - about 120 residues][not shown - about 250 residues]
notes: One SIRPα arm, two anti-PD-L1 domains; also called hu56di-SIRPα immunoconjugate; Group 5

Kd: 5.81 nM
koff: 0.00377 s⁻¹
kon: 650000 M⁻¹ s⁻¹
B2: SIRPα-Fc IgG1 (Fc fusion)
chain: not shown
notes: also called human SIRPα-Fc IgG1; Group 7
